Source: PubChem BioAssay AID588342 (National Center for Advancing Translational Sciences (NCATS), 2011)
Several values for one entry are separate records, joined by “and”; a condition that tells them apart may be missing. Equal entries are not always repeated. The whole screen tested about 360,000 compounds, of which about 25,000 (6.9%) were called active. This list was built around the results that the source calls inconclusive (neither active nor inactive); the mix of calls is not that of the screen. The call rests on the fitted dose curve; in most records, active means well fitted inhibition curve with a large enough effect; inconclusive means small, poorly fitted or top-dose-only effect; inactive means flat fitted curve, though single readings scatter. Potencies of inconclusive entries are doubtful fits and often do not repeat.

Biological target: Luciferin 4-monooxygenase (Photinus pyralis) (UniProt P08659)
Assay: qHTS profiling assay for firefly luciferase inhibitor/activator using purifed enzyme and Km concentrations of substrates (counterscreen for miR-21 project); further: nearly all actives have a fitted effect of over 55% in size
Conditions: purified FLuc, luminescence inhibition; series mostly up to 57.5 µM
How it was run: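 Purified P. pyralis luciferase (10nM final) with 10uM D-luciferin and 10uM ATP (Km levels) in 50mM Tris acetate pH 7.5, 10mM Mg acetate, 0.01% Tween-20, 0.05% BSA; qHTS 6-point titration, ~60 µM downward; luminescence read.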
Potency means the concentration at half of the fitted maximal effect; tags describe the fitted curve by direction and shape.

UniProt P08659, sequence (P08659 whole entry, looked up): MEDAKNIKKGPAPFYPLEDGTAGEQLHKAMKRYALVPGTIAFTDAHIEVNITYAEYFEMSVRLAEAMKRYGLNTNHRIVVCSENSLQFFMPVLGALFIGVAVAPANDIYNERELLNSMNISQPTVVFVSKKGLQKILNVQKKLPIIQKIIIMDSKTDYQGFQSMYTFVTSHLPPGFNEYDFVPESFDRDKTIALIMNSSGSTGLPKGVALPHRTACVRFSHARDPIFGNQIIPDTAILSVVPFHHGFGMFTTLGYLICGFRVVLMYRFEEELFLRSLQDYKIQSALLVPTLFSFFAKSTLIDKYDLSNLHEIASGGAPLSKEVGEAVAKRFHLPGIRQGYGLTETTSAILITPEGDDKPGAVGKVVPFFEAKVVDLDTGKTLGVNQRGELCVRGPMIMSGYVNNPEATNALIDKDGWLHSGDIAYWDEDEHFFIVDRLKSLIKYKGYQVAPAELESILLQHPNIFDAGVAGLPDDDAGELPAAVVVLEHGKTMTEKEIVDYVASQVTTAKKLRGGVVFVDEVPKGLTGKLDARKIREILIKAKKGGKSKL

SMILES | Potency
S=c1[nH]nc(-c2ccncc2)n1/N=C/c1cccc(Cl)c1 | inactive
COc1ccc(OC)c(CNCc2c(C(=O)O)n(Cc3cccc(F)c3)c3cc(OC)ccc23)c1 | inactive
O=C(COc1ccc2c3c(c(=O)oc2c1)CCC3)N1CCCCC1 | inconclusive: 26.9 µM [inhibitor, partial curve, poor fit]
O=C(N/N=C/c1ccccc1)NC1CCCCC1 | inconclusive: 23.9 µM [inhibitor, single point]
COc1ccc(-n2c(=S)[nH]c3sc(-c4ccccc4)cc3c2=O)c(OC)c1 | active: 26.9 µM
N#CCSc1nc(-c2ccccc2)cs1 | inconclusive: 21.3 µM [inhibitor, single point]
COC(=O)c1cn(NC(=O)/C=C/c2ccc(OC)c(OC)c2)c(=O)c2ccccc12 | inactive
Cn1cc(Br)c(C(=O)N/N=C/c2cc3c(cc2Cl)OCO3)n1 | active: 6.01 µM
CC(CCc1ccccc1)NC(=O)CCNS(=O)(=O)c1ccccc1 (centres undefined) | inactive
C=CCOC(=O)c1sc(NC(=O)c2ccco2)nc1C | active: 9.53 µM
CC1=CC(C)(C)N=C(Nc2ccc(C)cc2)S1 | inconclusive: 16.9 µM [inhibitor, partial curve]
COc1ccc(-c2noc(Cc3ccccc3OC)n2)cc1 | inconclusive: 23.9 µM [inhibitor, partial curve]
Fc1ccc(NC(=S)NCCc2ccc(Cl)cc2)cc1 | inconclusive: 16.9 µM [inhibitor, partial curve]
COc1ccccc1-c1nc(-c2ccccc2)[nH]c(=O)c1C#N | inconclusive: 30.1 µM [inhibitor, partial curve, poor fit]
O=C(Cc1ccccc1)N/N=C/c1ccccc1Cl | inconclusive: 37.9 µM [inhibitor, partial curve, poor fit]
O=C(N/N=C/c1c(F)cccc1Cl)c1ccc(Cn2cc(Br)cn2)o1 | inconclusive: 21.3 µM [inhibitor, single point]
CC(=O)c1ccc(N2CCN(C(=O)c3cc4c(C)nc5ccccc5c4o3)CC2)cc1 | inactive
Cc1cc(/C=C(/C#N)C(=O)O)c(C)n1-c1cccc2ccccc12 | inconclusive: 23.9 µM [inhibitor, single point]
Cc1ccc(-c2nc(CC(=O)Nc3cccc(S(=O)(=O)NC4=NCCC4)c3)cs2)cc1 | inconclusive: 15.1 µM [inhibitor, partial curve]
CC(C)CNc1nc(N)c([N+](=O)[O-])c(N2CCCCCC2)n1 | inactive
O=C(c1cccc(C(F)(F)F)c1)N(c1ccccn1)C1CCCCC1 | inactive
CC1CCN(C(=O)C2COc3ccccc3C2)CC1 (centres undefined) | inactive
CC(=O)NN1C(=O)c2ccccc2NC1c1ccccc1 (centres undefined) | inactive

SMILES | Potency
c1ccc2[nH]c(CSc3nc4ccccc4s3)nc2c1 | active: 15.1 µM
CCc1ccccc1NC(=O)Cn1c(SCc2ccc(F)cc2)nc2ccncc21 | inconclusive: 9.53 µM [inhibitor, partial curve]
COc1ccc(-c2nc(CCNC(=O)c3ccc(Br)o3)cs2)cc1 | inconclusive: 23.9 µM [inhibitor, single point] and inconclusive: 30.1 µM [inhibitor, partial curve]
S=C(Nc1ccc(Cl)cc1Cl)N1CCCC1 | inconclusive: 21.3 µM [inhibitor, partial curve, poor fit]
Cc1c(CC(=O)NCCCCCC(=O)O)c(=O)oc2cc3c(cc12)CCC(C)(C)O3 | inconclusive: 37.9 µM [inhibitor, single point]
CCCCCN1C=CC(=C2C(=O)c3ccccc3C2=O)C=C1 | active: 0.0675 µM
COC(=O)c1cc(OC(=O)CCc2ccc(OC)c(OC)c2)cc(C(=O)OC)c1 | inconclusive: 33.8 µM [inhibitor, partial curve, poor fit]
CCOC(=O)C1=C(C)C(c2ccccc2OC)NC(=S)N1 (centres undefined) | inactive
Cc1cccc(S(=O)(=O)NNC(=O)c2cc(-c3ccc(F)cc3)nc3ccccc23)c1 | inconclusive: 15.1 µM [inhibitor, partial curve]
COc1ccc(NC(=O)c2ccc3[nH]c(C)c(C)c3c2)c(OC)c1 | inconclusive: 13.5 µM [inhibitor, partial curve]
COc1ccc(CCC(=O)N2c3ccccc3CC2C)cc1 (centres undefined) | inconclusive: 26.9 µM [inhibitor, single point]
Cc1noc(NS(=O)(=O)c2ccc(N/C=C\C(=O)c3ccccc3)cc2)c1C | inconclusive: 21.3 µM [inhibitor, partial curve]
CC(C)n1c(NCc2c[nH]c3ccccc23)nc2ccccc21 | inconclusive: 37.9 µM [inhibitor, single point]
NC(=O)c1ccsc1NC(=O)CSc1nnc(Nc2ccccc2)s1 | inconclusive: 26.9 µM [inhibitor, single point]
Cc1ccc(S(=O)(=O)N(CCc2ccccc2)CC(=O)Nc2ccc(Br)cc2)cc1 | inactive
COc1ccc(C2/C(=C(/O)c3ccccc3)C(=O)C(=O)N2CCCN2CCOCC2)cc1 (centres undefined) | inconclusive: 37.9 µM [inhibitor, partial curve, poor fit]
CC(C)CC1(C(=O)NCCc2c[nH]c3ccccc23)C=CCN1C(=O)c1ccccc1 (centres undefined) | inactive
O=[N+]([O-])c1nn(-c2cccc(Cl)c2)n(O)c1=NCc1cccnc1 | inconclusive: 37.9 µM [inhibitor, partial curve, poor fit]
O=C1Nc2ccccc2N=C(c2ccccc2)c2ccccc21 | inconclusive: 30.1 µM [inhibitor, partial curve, poor fit]
COc1cccc(-c2nn3c(-c4ccco4)nnc3s2)c1 | inconclusive: 15.1 µM [inhibitor, partial curve, poor fit]
Cc1ccc(NC(=O)c2ccc(C)c(NC3=NC4CS(=O)(=O)CC4S3)c2)cc1C (centres undefined) | inconclusive: 30.1 µM [inhibitor, single point]
O=C(Nc1ccc(Cl)cc1)c1sccc1-n1cccc1 | inconclusive: 26.9 µM [inhibitor, partial curve, poor fit]
O=C(CCN1C(=O)/C(=C/c2ccc3c(c2)OCO3)SC1=S)NNC(=O)c1cccnc1 | inconclusive: 8.49 µM [inhibitor, partial curve, poor fit]

SMILES | Potency
Cc1ccc(C(=O)CN2C(=O)c3ccccc3S2(=O)=O)cc1 | inconclusive: 2.39 µM [inhibitor, full curve, poor fit]
Cc1cc2cc(C#N)c(N3CCN(S(C)(=O)=O)CC3)nc2cc1C | inconclusive: 16.9 µM [inhibitor, partial curve, poor fit]
COc1ccc(/C=N/NC(=O)C(=O)NCC2CCCO2)cc1 (centres undefined) | inconclusive: 21.3 µM [inhibitor, single point]
O=C(Cc1ccc(Cl)cc1)Nc1ccc(Cl)cn1 | inconclusive: 37.9 µM [inhibitor, partial curve, poor fit]
N=C1/C(=C/c2cccs2)C(=O)N=C2SN=C(SCc3ccccc3)N12 | inconclusive: 37.9 µM [inhibitor, single point]
Cc1ccc(C(=O)Nc2cccc(C(=O)OCc3cc(=O)n4nc(C5CC5)sc4n3)c2)cc1 | inconclusive: 2.39 µM [inhibitor, partial curve, poor fit]
Cc1ccc(-n2c(N)c(-c3nc4ccccc4n3C)sc2=S)cc1 | inactive
Cc1c(C(=O)Nc2ccccc2Cl)oc2ccc(S(=O)(=O)N3CCCCC3)cc12 | inactive
CC(C(=O)N1CCCCC1)n1sc2ccccc2c1=O (centres undefined) | active: 23.9 µM
Cc1ccc(Cl)cc1NC(=O)c1ccc(Cn2cc(Cl)cn2)cc1 | inconclusive: 30.1 µM [inhibitor, partial curve, poor fit]
Cc1cc(C(=O)O/N=C(\N)c2ccc(C(C)(C)C)cc2)no1 | active: 6.01 µM
O=C(CNC(=O)c1cccs1)c1ccc(F)cc1 | active: 4.78 µM
CCOC(=O)c1cc(C(=O)OCC)c(=O)[nH]c1N1CCCCC1 | inconclusive: 37.9 µM [inhibitor, partial curve, poor fit]
Cc1ccc(-c2nc(N3CCCC(C)C3)c3ccccc3n2)cc1 (centres undefined) | inactive
Cc1csc(NC(=O)CSc2nnc(NC(=O)COc3ccc(Cl)cc3)s2)n1 | inconclusive: 1.69 µM [inhibitor, full curve]
COc1ccc(C(=O)C2CCCN(Cc3cc(C)c(O)c(C)c3)C2)c(OC)c1 (centres undefined) | inactive
O=C(NC(=S)Nc1ccccc1F)C1CCCCC1 | inconclusive: 37.9 µM [inhibitor, partial curve, poor fit]
CCCCC(CC)CNC(=O)CC1Nc2c3ccccc3nc(=S)n2C1=O (centres undefined) | inactive
CN(C(=O)c1ccc(NC(=O)Cc2ccc(NC(=O)C3CCN(C(=O)C4CC4)CC3)cc2)cc1)C1CC1 | inconclusive: 14.1 µM [inhibitor, partial curve, poor fit]
O=[N+]([O-])c1cccc(-c2nnc3ccc4ccccc4n23)c1 | inconclusive: 15.1 µM [inhibitor, partial curve, poor fit]
Cn1cncc1C#Cc1ccc2cc(CCCO)oc(=O)c2c1 | inconclusive: 30.1 µM [inhibitor, single point]
COc1ccc(C2NC(=O)C(C#N)=C(S)N2c2ccccc2)cc1OC (centres undefined) | inconclusive: 37.9 µM [inhibitor, partial curve, poor fit]
CC1(C)Cc2nc3oc4c(N(CCO)Cc5ccccc5)ncnc4c3cc2CO1 | inactive
